The results in this text go back to PubChem BioAssay AID1159614 (National Center for Advancing Translational Sciences (NCATS), 2016).

In all, about 45,000 compounds went through this assay and about 65 (0.1%) were called active. The call rests on the fitted dose curve; in most records, active means well fitted activation curve with a large enough effect; inconclusive means small, poorly fitted or top-dose-only effect; inactive means no such curve, though single readings can be large or run the other way. The list shows a part of the results.

Chain of UniProt P54803 (P54803 whole entry, looked up): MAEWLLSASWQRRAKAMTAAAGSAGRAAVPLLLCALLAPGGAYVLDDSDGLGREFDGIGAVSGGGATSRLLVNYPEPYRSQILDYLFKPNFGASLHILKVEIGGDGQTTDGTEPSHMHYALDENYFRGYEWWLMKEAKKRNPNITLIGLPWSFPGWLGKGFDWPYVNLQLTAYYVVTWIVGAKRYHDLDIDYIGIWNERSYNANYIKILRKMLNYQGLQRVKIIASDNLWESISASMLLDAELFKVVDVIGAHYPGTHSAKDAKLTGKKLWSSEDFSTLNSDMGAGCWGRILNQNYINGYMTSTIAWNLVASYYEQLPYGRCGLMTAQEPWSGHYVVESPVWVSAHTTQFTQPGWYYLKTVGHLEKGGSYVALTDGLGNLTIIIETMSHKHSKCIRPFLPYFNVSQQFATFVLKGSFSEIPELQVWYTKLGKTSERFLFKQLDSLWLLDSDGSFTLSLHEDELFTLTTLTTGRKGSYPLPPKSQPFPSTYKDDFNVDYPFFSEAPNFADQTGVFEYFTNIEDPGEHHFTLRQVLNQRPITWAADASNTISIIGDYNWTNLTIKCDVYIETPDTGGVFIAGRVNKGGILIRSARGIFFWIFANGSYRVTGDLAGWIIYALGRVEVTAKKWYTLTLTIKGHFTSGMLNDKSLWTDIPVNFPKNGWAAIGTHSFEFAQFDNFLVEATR

The experiment addresses Galactocerebrosidase (Homo sapiens) (UniProt P54803). The experiment is described as follows: A Novel Cell-Based Assay to Identify Small Molecules for B -Galactocerebrosidase. Further: 0% is about no effect; nearly all actives have a fitted effect of over 65% in size. As to conditions: 145M-Twi-hGALC-G270D cells (Twitcher mouse brain line with human GALC G270D), HMU-beta-Gal fluorescence, 48 h; series mostly up to 57.5 µM; activation: at the top concentration. The method, boiled down:
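Fluorescence readout: HMU-β-gal cleavage by mutant GALC (0.1 mM final, citrate/phosphate pH 5.2 with 1 mg/mL taurocholate), stopped with carbonate/bicarbonate plus Triton X-100. Cells: murine Twitcher 145M-Twi expressing human G270D GALC; qHTS for activators.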
As for `Cc1cccc(C)c1OCC(=O)NCC1(N2CCOCC2)CCCCC1`, the “activation” value was inactive: -7.04%.
As for `CCOC(=O)c1ccc(-n2c(N)c(C(=O)OC)c3nc4ccccc4nc32)cc1`, the “activation” value was inactive: -9.55%.
For the compound `CCc1ccccc1NC(=O)C1=CC(c2ccc(OC)c(OC)c2)=NS(=O)(=O)N1C`, the “activation” value was inactive: -9.43%.
For `COc1ccc(OC(=O)c2nc(SCc3ccc(C)cc3)ncc2Cl)cc1`, the “activation” value is inactive: -18.7%.
For the compound `CC1CCCN(c2csc3ccc(F)cc3c2=O)C1` (configuration not stated), the “activation” value was inactive: -12.6%.
For the compound `Cc1ccc(NC(=O)Cn2c(=O)n(Cc3ccccc3)c(=O)c3c(C)c(C)sc32)c(C)c1`, the “activation” value is inactive: -7.42%.
As to `CCC(Cc1ccccc1)NC(=O)c1ccc2nc(N3CCC(C)CC3)sc2c1` (configuration not stated), the “activation” value was inactive: -6.65%.
Then `Cc1ccc(-c2nc(C)c(CCNC(=O)C(=O)Nc3ccc4c(c3)OCCO4)s2)cc1`, with inactive: -25.8%; and `CCCOc1ccc(C(=O)Nc2cccc(-c3nc4ccccc4[nH]3)c2)cc1`, with inactive: -4.14%.
Then `COc1ccccc1-c1nc(S(=O)(=O)c2ccc(Cl)cc2)c(N2CCCCCC2)o1`, with inactive: -4.54%.
The same measure for `COc1ccc(-n2nc3ccc(NC(=O)c4cc5ccccc5o4)cc3n2)cc1Cl`: inactive: -9.53%; for `CCOc1ccc(CNC(=O)C2CCCN(c3nc4c(C)cc(C)cc4s3)C2)cc1` (configuration not stated): inactive: -17.2%.
Turning to `CCC(CC)C(=O)Nc1cccc(-c2nc3cccnc3s2)c1C`, the “activation” value is inactive: 2.73%.
For the compound `CCOc1cc(C2C(C(=O)OC)=C(C)NC3=C2C(=O)c2ccccc23)ccc1O` (configuration not stated), the “activation” value is inactive: -6.38%.
Then `CC1(C)O[C@H]2[C@@H](O1)[C@@H](C(=O)Nc1ccccc1O)O[C@@H]1OC(C)(C)O[C@@H]12`, with inactive: -6.54%; and `CCc1ccc(-c2nn(CC(=O)NC3CCCC3)c3c2cnc2ccc(C)cc23)cc1`, with inactive: -2.54%.
The same measure for `Cc1ccc(C(C)C)c(OCC(=O)Nc2c(C(=O)c3ccccc3)oc3ccccc23)c1`: inactive: 1.73%; for `Cc1cccc(/C=C/c2onc(C)c2S(=O)(=O)N2CCC(C(=O)N3CCC(C)CC3)CC2)c1`: inactive: -14.8%; for `FC(F)(F)c1ccccc1-n1ccnc1`: inactive: -13.9%.
The same measure for `Cc1cc(Nc2cccc(C(F)(F)F)c2)nc2ccc(NC(=O)c3ccc(N(C)C)cc3)cc12`: inactive: -22.4%; for `O=C(Nc1cccc(C(=O)N2CCCCC2)c1)c1nsc2ccccc12`: inactive: -7.6%; for `Cc1cc(O)c(C(c2ccc(F)cc2)N2CCCCC2)c(=O)n1Cc1ccco1` (configuration not stated): inactive: -14.1%.
Turning to `CCc1ccc(-n2nc(C)c3c(C(=O)Nc4cccc(C(F)(F)F)c4)cc(C)nc32)cc1`, the “activation” value was inactive: -4.38%.
Then `CCOc1ccccc1NC(=O)c1c(C)cc(C)nc1SCC(=O)c1cccc(OC)c1`, with inactive: -15.5%; and `Cc1ccc(NC(=O)c2sc3ccccc3c2Cl)cc1`, with inactive: 7.87%.
Turning to `Cc1ccc(CN2C(=O)c3ccccc3C2C(=O)NC2CCCCCC2)cc1` (configuration not stated), the “activation” value is inactive: -17.7%.
The same measure for `Cc1ccc(NC(=O)CCCn2nc(C)c3c(C)n(-c4ccccc4)nc3c2=O)cc1Cl`: inactive: -13%.
